Measured values as given in the supplement of paper PMC9446081.
Screen size: about 39,000 compounds; about 220 (0.56%) showed activity. This is one part of the list.

Test system: Escherichia coli K-12 BW25113
Experiment: relative growth (OD600 normalised to plate interquartile mean) (fraction); higher = less growth inhibition, active = 0.2 or less
Details: 50 µM; LB; incubation time: overnight (16-24 h)
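Further: static incubation at 37 °C against the wild-type strain, values averaged over two biological replicates.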

SMILES | relative growth
C=CCOC(=O)[C@@H]1[C@H]2C(=O)O[C@H](c3ccccc3)[C@H](c3ccccc3)N2[C@H](c2ccc(OCCOC(=O)[C@H]3C[C@H]4C(=O)N5CCC[C@H]5C(=O)N4[C@H]3c3ccc(O)cc3)cc2)[C@@]12C(=O)Nc1ccccc12 | inactive: 1.01
C[C@@H]1CN([C@@H](C)CO)C(=O)c2c(c3ccccc3n2C)-c2ccccc2CO[C@@H]1CN(C)Cc1ccc(O)cc1 | inactive: 1.01
Cc1ccc(S(=O)(=O)Nc2ccc3c(c2)CC(=O)N([C@H](C)CO)C[C@H](C)[C@@H](CN(C)Cc2ccncc2)O3)cc1 | inactive: 1.01
CC[C@@H](O)C[C@H]1CC[C@H]([C@@H](C)C(=O)O[C@@H](C)C[C@H]2CC[C@H]([C@@H](C)C(=O)O[C@@H](C)C[C@H]3CC[C@H]([C@@H](C)C(=O)O[C@@H](C)C[C@H]4CC[C@H]([C@@H](C)C(=O)O)O4)O3)O2)O1 | inactive: 1.06
C[C@H]1CCCCO[C@H](CN(C)C(=O)Nc2cccc3ccccc23)[C@@H](C)CN([C@@H](C)CO)C(=O)c2cc(NC(=O)Cc3ccccc3)ccc2O1 | inactive: 1.01
C[C@@H]1CN([C@H](C)CO)C(=O)c2cc(NS(=O)(=O)c3cccs3)ccc2O[C@@H](C)CCCCO[C@@H]1CN(C)C(=O)Cc1ccccc1 | inactive: 1.02
COc1ccc(NC(=O)N(C)C[C@@H]2Oc3ccc(NS(=O)(=O)c4cn(C)cn4)cc3CC(=O)N([C@H](C)CO)C[C@H]2C)cc1 | inactive: 0.998
C[C@@H]1CN([C@@H](C)CO)C(=O)c2cccc(NS(=O)(=O)c3cn(C)cn3)c2O[C@H]1CN(C)C(=O)Nc1ccc2c(c1)OCO2 | inactive: 1.02
COCC#Cc1ccc([C@H]2[C@@H](CO)N3C(=O)CN(C(=O)c4cccnc4)C[C@@H]23)cc1 | inactive: 0.993
CCCN(C)C[C@@H]1Oc2cc(C#Cc3cccc(OC)c3)ccc2S(=O)(=O)N([C@H](C)CO)C[C@@H]1C | inactive: 0.99
Cc1noc(C)c1NC(=O)Nc1ccc2c(c1)C(=O)N([C@@H](C)CO)C[C@@H](C)[C@H](CN(C)Cc1ccccc1)OCCCC[C@H](C)O2 | inactive: 0.999
CS(=O)(=O)Nc1ccc2c(c1)[C@H]1C[C@@H](CC(=O)NCC3CC3)O[C@H](CO)[C@H]1O2 | inactive: 1.04
O=C(C[C@@H]1CC[C@H]2[C@@H](COC[C@@H](O)CN2C(=O)c2ccccc2)O1)NCCCN1CCOCC1 | inactive: 0.988
C[C@H](CO)N1C[C@H](C)[C@@H](CN(C)C(=O)c2cc(Cl)cc(Cl)c2)OCc2ccccc2-c2c(n(C)c3ccccc23)C1=O | inactive: 0.933
C[C@@H]1CN([C@H](C)CO)C(=O)c2cc(NS(C)(=O)=O)ccc2O[C@H]1CN(C)Cc1ccc(C(F)(F)F)cc1 | inactive: 0.994
O=C(CN1CCOCC1)N[C@H]1CC[C@H](CCn2cc(C3CCCC3)nn2)O[C@H]1CO | inactive: 0.973
Cc1nc2c(c(C)nn2-c2ccccc2)c(C)c1CN | inactive: 0.99
CCS(=O)(=O)N1C[C@]2(CN(C2)C(=O)Nc2c(noc2C)C)c2c(n(c3cc(ccc23)OC)C)[C@@H]1CO | inactive: 0.982
CCN(CC)c1ccc(N2CC=C[C@@]34O[C@@H]5/C=C\CCCOC(=O)[C@@H]5[C@H]3C(=O)N(CCO)[C@@H]4C2=O)cc1 | inactive: 0.979

SMILES | relative growth
CN(C)S(=O)(=O)c1ccc(C#N)cc1 | inactive: 0.999
Cc1ccc(S(=O)(=O)N(C)C[C@@H]2Oc3ccc(NC(=O)CCN4CCOCC4)cc3C(=O)N([C@H](C)CO)C[C@@H]2C)cc1 | inactive: 1
C[C@@H]1CN([C@@H](C)CO)C(=O)c2cccc(NS(=O)(=O)c3ccc(F)cc3)c2O[C@H]1CN(C)Cc1ccc(Cl)c(Cl)c1 | inactive: 0.996
COc1ccc(NC(=O)N(C)C[C@@H]2Oc3c(NS(=O)(=O)c4c(C)noc4C)cccc3C(=O)N([C@H](C)CO)C[C@@H]2C)cc1 | inactive: 0.993
COCC(=O)N1CC(=O)N2[C@H](C1)[C@H](c1ccc(C#Cc3cccnc3)cc1)[C@@H]2CO | inactive: 0.99
O=c1ccc(=O)n(CNc2nccs2)[nH]1 | inactive: 0.988
Cc1noc(C)c1S(=O)(=O)N(C)C[C@@H]1Oc2c(NC(=O)c3cnccn3)cccc2C(=O)N([C@H](C)CO)C[C@@H]1C | inactive: 0.981
C[C@H]1CN([C@@H](C)CO)C(=O)c2cccc(NS(=O)(=O)c3cn(C)cn3)c2O[C@@H]1CN(C)S(=O)(=O)c1ccc(Cl)cc1 | inactive: 1
C[C@@H]1CN([C@@H](C)CO)C(=O)c2c(c3ccccc3n2C)-c2ccccc2CO[C@H]1CN(C)Cc1ccc(-c2ccccc2)cc1 | inactive: 1.02
C[C@H](CO)N1C[C@H](C)[C@H](CN(C)CC2CCOCC2)Oc2cc(C#Cc3cccnc3)ccc2S1(=O)=O | inactive: 0.989
C[C@H](CO)N1C[C@H](C)[C@@H](CN(C)S(=O)(=O)c2cn(C)cn2)Oc2ccc(NC(=O)c3ccncc3)cc2C1=O | inactive: 0.993
Cc1noc(C)c1NC(=O)Nc1ccc2c(c1)C(=O)N([C@H](C)CO)C[C@@H](C)[C@@H](CN(C)Cc1ccc3c(c1)OCO3)OCCCC[C@H](C)O2 | inactive: 0.964
Cc1noc(C)c1NC(=O)N(C)C[C@@H]1Oc2c(NS(=O)(=O)c3c(C)noc3C)cccc2C(=O)N([C@H](C)CO)C[C@@H]1C | inactive: 0.99
O=C(C[C@H]1C=C[C@@H](NC(=O)CN2CCOCC2)[C@@H](CO)O1)NCc1cccc(F)c1 | inactive: 0.897
Cc1cc(OCCCS(C)(=O)=O)cc(C)c1-c1cccc(COc2ccc3c(c2)OC[C@H]3CC(=O)O)c1 | inactive: 1.02
COc1ccc(CN(C)C[C@@H]2OCCCC[C@H](C)Oc3ccc(NS(=O)(=O)c4ccc(Cl)cc4)cc3C(=O)N([C@H](C)CO)C[C@@H]2C)cc1 | inactive: 1
CCC(=O)Nc1ccc2c(c1)C(=O)N(C)C[C@@H](OC)[C@H](C)CN(C(=O)CN1CCOCC1)[C@H](C)CO2 | inactive: 1.02
COc1ccc(S(=O)(=O)N(C)C[C@@H]2Oc3c(NC(=O)c4ccncc4)cccc3C(=O)N([C@@H](C)CO)C[C@H]2C)cc1 | inactive: 1
